These results are taken from article PMC4207660, “Identification and Characterization of Hundreds of Potent and Selective Inhibitors of Trypanosoma brucei Growth from a Kinase-Targeted Library Screening Campaign” (PLoS Neglected Tropical Diseases, 2014).

In data set [1] the test system is T. brucei brucei parasites (Lister 427 strain). Nature of the data set: Dose response growth inhibition assay (resazurin, 72 h). As to conditions: Trypanosoma brucei, 72 h; read-out: pEC50 (converted). The format is cell-based. The procedure:
Greiner sterile black clear bottom 384-well assay plates were pre-dispensing with 200 nL of compound in each well, from master plates at 1 mM (100% DMSO) containing selection from the GSK compound collection. Controls of 0% response (control 1, 200 nL of 100%DMSO) and 100% response (control 2, 200 nL of 1 mM pentamidine) were included in each assay plate in columns 6 and 18, respectively. Plates containing 200 nL of 100% DMSO were included randomly in the assay, to assess quality through all process. […] After this period, 10 µL of 200 µM resazurin solution in prewarmed HMI-9 were added to each well, and plates were allowed to incubate 2 hours more prior fluorescence reading in a Wallac EnVision Multilabel Plate Reader (Perkin-Elmer). Raw fluorescent data from the Envision plate reader were uploaded into GSK HTS database (ActivityBase). Activity of each well was normalized as a percentage of inhibition per-plate basis using the following equation: [drawing 1]
For dose-response experiments, serial compound dilutions of selected hits from the primary campaign were plotted against compound concentration. Dose response master plates were prepared by 3-fold dilutions (starting with 10 mM DMSO stock solutions), providing 11 concentrations. From these master plates, 200 nL per well was stamped in final assay plates, including the same controls describe in the primary single shot assay. Compounds were dispensed as serial dilution curve format, with 11 points at 3-fold dilution and 40 µM as starting top concentration (n = 2). Growth inhibition assay was performed as described in previous assay.
A 4-parameter equation describing a sigmoidal dose-response curve was then fitted with an adjustable baseline using ActivityBase XE Runner software. Fitting of dose-response curves and EC50 determination were normalized as percentage of inhibition based on controls. The curve-fit model was based on a 4-parameter equation: [drawing 2]
Trypanosome cell culture. […]
(In general: The colour change of resazurin is a common sign of viable cells or microbes.)

A further data set is described as follows: ChromlogD assay. The settings on record: reversed-phase HPLC column (Luna C18 (2)), pH 7.4. On the procedure:
The Chromatographic Hydrophobicity Index (CHI)[22] values were measured using reversed phase HPLC column (Luna C18 (2), Phenomenex, UK) with a fast acetonitrile gradient at starting mobile phase of pH = 7.4. CHI values are derived directly from the gradient retention times by using a calibration line obtained for standard compounds. The CHI value approximates to the volume % organic concentration when the compound elutes. […] The average error of the assay is ±3 CHI unit or ±0.25 ChromlogD.

For orientation: logD means the decadic logarithm of the distribution of all forms, ionised or not, between an organic phase and buffer at a given pH. A low value points to a more hydrophilic compound.

On to `Cc1cccc(Nc2nc(OCCN)ncc2C(N)=O)c1` [NEU-0001103], for which the EC50 in data set [1] is 339 nM. In the data set “ChromlogD assay”, this compound had a logD of 2.05.

Regarding `CC[C@@H]1COCCN1c1cc(-c2cc(OC)c3c(N)n[nH]c3c2)nc(N)n1` [NEU-0001102], in data set [1], the EC50 is 447 nM. This compound also displayed a logD in the data set “ChromlogD assay” of 2.62.

For the compound `CS(=O)(=O)Nc1ccc(-c2c(-c3cccnc3)oc3ncnc(N)c23)cc1` [NEU-0001100], the EC50 in data set [1] is 692 nM. Also, the pH-dependent lipophilicity (logD) in “ChromlogD assay” came to 1.72.
